Source: PMC4336329 (PLoS ONE, 2015)
Hit rate of the full screen: of about 310,000 compounds, about 14,000 (4.5%) showed an effect of 50% or more. The effect is printed as a negative number. Some of the results follow.

biological target: human ether-à-go-go-related gene (hERG) potassium channel (human, UniProt Q12809); test: primary screen, population patch clamp on CHO cells stably expressing hERG
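Also: peak tail current of the secondary pulse compared with the same well before compound.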

Chain of human ether-à-go-go-related gene (hERG) potassium channel (Q12809 whole entry, looked up): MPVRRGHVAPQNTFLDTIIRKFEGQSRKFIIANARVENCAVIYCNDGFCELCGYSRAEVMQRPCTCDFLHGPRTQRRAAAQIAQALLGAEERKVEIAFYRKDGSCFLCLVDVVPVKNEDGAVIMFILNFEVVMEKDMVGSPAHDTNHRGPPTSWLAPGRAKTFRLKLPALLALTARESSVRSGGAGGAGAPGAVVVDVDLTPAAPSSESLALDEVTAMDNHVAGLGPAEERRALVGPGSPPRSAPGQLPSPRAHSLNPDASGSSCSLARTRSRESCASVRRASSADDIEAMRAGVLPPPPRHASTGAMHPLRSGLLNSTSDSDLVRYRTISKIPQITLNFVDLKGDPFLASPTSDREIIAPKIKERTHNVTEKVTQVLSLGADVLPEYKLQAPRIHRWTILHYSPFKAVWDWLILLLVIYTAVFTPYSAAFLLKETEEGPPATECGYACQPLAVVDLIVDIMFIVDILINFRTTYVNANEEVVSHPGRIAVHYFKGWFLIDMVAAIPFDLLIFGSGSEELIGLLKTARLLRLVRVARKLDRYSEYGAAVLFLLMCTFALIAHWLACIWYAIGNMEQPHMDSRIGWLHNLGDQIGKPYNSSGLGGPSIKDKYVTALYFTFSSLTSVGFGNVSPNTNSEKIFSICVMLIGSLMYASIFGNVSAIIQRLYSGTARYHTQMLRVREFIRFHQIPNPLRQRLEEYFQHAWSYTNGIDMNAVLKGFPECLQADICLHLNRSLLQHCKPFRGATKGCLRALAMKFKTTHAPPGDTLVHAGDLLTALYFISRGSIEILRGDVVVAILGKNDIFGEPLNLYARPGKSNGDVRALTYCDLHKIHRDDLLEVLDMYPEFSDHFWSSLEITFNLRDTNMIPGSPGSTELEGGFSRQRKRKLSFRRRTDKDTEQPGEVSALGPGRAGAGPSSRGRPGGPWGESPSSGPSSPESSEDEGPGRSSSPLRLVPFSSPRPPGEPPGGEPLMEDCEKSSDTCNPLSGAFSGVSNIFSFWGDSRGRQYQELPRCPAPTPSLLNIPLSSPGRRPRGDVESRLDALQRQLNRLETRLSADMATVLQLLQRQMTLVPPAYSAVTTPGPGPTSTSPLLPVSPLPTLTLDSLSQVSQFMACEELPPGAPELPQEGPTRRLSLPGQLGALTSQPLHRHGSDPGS

Compound	hERG current change (%, negative = inhibition) at 10uM [%]
Clc1ccc2c(N/N=C/c3cccc(Br)c3)ccnc2c1	-5.99
Cc1nnc(SCC(=O)N(C)CC(=O)Nc2ccccc2Cl)s1	2
CC1CC(C)CN(CCCNC(=O)c2ccc3c(c2)ncn3C2CCCC2)C1 (centres unmarked)	-20.7
CCOC(=O)c1c(C)cc(C)n2c1nc1ccccc12	-38.8
O=C(CN(Cc1ccccc1)C(=O)CCC(=O)Nc1ccccn1)NCCc1ccccc1	-52.4
CC1=[N+]([O-])C2(N)CCc3nonc3C2(O)C1 (centres unmarked)	-0.461
COc1ccc(-n2c(SCC(=O)N3CCCCC3)nc(O)cc2=O)cc1	-8.33
O=C(c1cccc(NC2=NC3CS(=O)(=O)CC3S2)c1)N1CCN(c2ccc(F)cc2)CC1 (centres unmarked)	8.77
Clc1ccc2c(N/N=C/c3ccccc3Br)ccnc2c1	16.3
Cc1nnsc1Sc1ccccn1	28.2
Nc1cccnc1Sc1cccc(Cl)c1	-6.62
CC(=O)Nc1ccc(S(=O)(=O)N2CCC3(CC2)OCCO3)cc1	17.9
O=C(/C=C/c1cccc([N+](=O)[O-])c1)NCCSCc1ccc(Cl)cc1Cl	4.75
COC(=O)N1[C@H](C)C=C[C@]1(Cc1ccccc1)C(=O)OC	-2.17
N#Cc1ccsc1NC(=O)C1CCN(C(=O)c2ccc(F)cc2)CC1	-45.7
COc1ccc(C2C(C(C)=O)=C(O)C(=O)N2CCO)c(OC)c1 (centres unmarked)	14
O.Oc1cc(O)c2c(c1)OC(c1ccc(O)c(O)c1)C(O)C2 (centres unmarked)	-5.86
Cc1cc(NS(=O)(=O)c2ccc(NC(=O)c3oc4ccccc4c3C)cc2)no1	-8.02
CC(C)CC(NC(=O)c1cccc(Cl)c1)C(=O)O (centres unmarked)	25

Compound	hERG current change (%, negative = inhibition) at 10uM [%]
CCOC(=O)N1CCN(C(=O)c2ccccc2CCc2ccccc2)CC1	-59.1
Cn1c(-c2ccccc2)cnc1NCc1cc(Cl)ccc1O	19.9
COc1ccccc1NC(=O)c1ccc(NS(=O)(=O)c2ccc(F)c(F)c2F)cc1	-6.5
O=C1NC(=O)/C(=C\c2ccc(Sc3ccc(Cl)cc3)o2)N1	2.37
Cc1nn(-c2ccccc2)c(Cl)c1/C=N/NC(=O)c1ccncc1	1.04
Cc1cc(OCC(=O)OC(C)C(=O)Nc2ccc(N3CCOCC3)cc2)ccc1Cl (centres unmarked)	2.54
CC1=NN(c2ccccc2)C(=O)C1C(=O)c1cc([N+](=O)[O-])cc([N+](=O)[O-])c1 (centres unmarked)	2
O=C(Oc1cccc2cccnc12)c1cccc(N2C(=O)C3C4CCC(C4)C3C2=O)c1 (centres unmarked)	-7.07
Cc1occc1C(=O)NC1CCCCCCC1	1.53
COc1ccccc1N1CCN(Cc2ccccc2Cl)CC1	-23.5
Cn1c(NNC(=O)c2c(F)cccc2F)cc(=O)n(C)c1=O	-6.67
O=C(CSc1ccc(Cl)cc1)Nc1ccc(NC(=O)c2ccco2)cc1	3.29
COc1cccc(C(=O)Nc2ccc3c(C)cc(=O)oc3c2)c1	9.06
COCCNC(=O)c1cccc(OC2CCN(Cc3cccc(SC)c3)CC2)c1	-35.2
COc1ccc(N(C)C(=O)Cc2c(C(=O)O)[nH]c3ccccc23)c(OC)c1	25.8
COCCNC(=O)c1onc(CSc2cccc(Cl)c2)c1C(=O)O	16.3
CC(O)CNC(=O)C1CCN(Cc2ccc(OCc3ccccc3)cc2)CC1.O=C(O)C(=O)O (centres unmarked)	-33.2
O=C1C(=O)N(c2ccccn2)C(c2ccc(Br)cc2)/C1=C(/O)c1ccc(Br)cc1 (centres unmarked)	-47.8
O=C(OCc1nc2ccccc2s1)c1ccco1	7.79

Compound	hERG current change (%, negative = inhibition) at 10uM [%]
O=C1N=C([O-])CN1/N=C/c1ccc(-c2ccc([N+](=O)[O-])cc2)o1.[Na+]	-18
Oc1ccc2ccccc2c1C=Nc1ccccc1Br	3.7
Cc1[nH]nc2c1C(CC(C)C)C(C#N)=C(N)O2 (centres unmarked)	21.3
Clc1ccc(-c2ccnc(Oc3cc(Cl)ccc3Cl)n2)cc1	14.6
COc1ccc(NC(=O)CN2C(=O)C(C)Oc3ccccc32)cc1 (centres unmarked)	-0.0431
CCC(C)[C@H](NC(=O)C1CCN(C(=O)[C@H](Cc2ccccc2)NC(=O)OC(C)(C)C)CC1)C(=O)O (some centres unmarked)	-1.42
Cc1ccc2c(c1)C(c1ccccc1)N(C(=O)c1c(F)cccc1Cl)CC(=O)N2 (centres unmarked)	-22.3
Cc1ccc(S(=O)(=O)/N=C2/C=C(C3C(=O)CC(C)(C)CC3=O)C(=O)c3ccccc32)cc1	0.322
O=c1c2ccccc2cnn1-c1ccc(Cl)cc1	-1.86
NC(=O)CCS(=O)(=O)CCN1CCCCC1	17.4
N#CC1=C(N)Oc2cc(N)ccc2C1c1cccc(F)c1 (centres unmarked)	-19.8
O=C(CSc1nc2ccccc2o1)Nc1ccc(N2CCOCC2)c(Cl)c1	-9.82
C=CCNC(=O)c1onc(CSc2cccc(OC)c2)c1C(=O)O	18.2
CC(=O)O[C@H]1CC(C)(C)C(=C=C/C(C)=C/C=C/C(C)=C/C=C/C=C(C)/C=C/C=C(\C)C(=O)C[C@@]23O[C@]2(C)C[C@@H](O)CC3(C)C)[C@](C)(O)C1	3.02
COc1ccc(NC(=O)CSc2nnc(NC(C)=O)s2)c([N+](=O)[O-])c1	13
CC(C)(C)c1ccc2c(c1)OC(C(=O)N/N=C/c1ccc([N+](=O)[O-])o1)CO2 (centres unmarked)	-39.2
Cc1ccccc1N/N=C1\CCCNC1=O	3.4
Cl.Cn1nnnc1SCCNCc1ccccc1OCc1ccccc1Cl	-27.6
